The text below walks through data of publication PMC7819943, “Rice protein-binding microarrays: a tool to detect cis-acting elements near promoter regions in rice”.

Some of the results follow.

The target of this assay is T1, OsWOX13 (Oryza sativa, UniProt Q5QMM3 1-267).
T1 sequence: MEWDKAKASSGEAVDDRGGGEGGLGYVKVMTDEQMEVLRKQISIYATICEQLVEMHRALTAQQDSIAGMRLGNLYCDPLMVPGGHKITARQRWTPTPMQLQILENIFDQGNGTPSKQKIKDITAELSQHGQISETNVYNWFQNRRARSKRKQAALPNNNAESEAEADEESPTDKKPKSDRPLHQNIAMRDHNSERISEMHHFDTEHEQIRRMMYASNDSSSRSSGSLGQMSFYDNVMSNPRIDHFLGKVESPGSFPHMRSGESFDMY
The assay can be described thus: protein-binding microarray (RPBM); PBS, 2% BSA, 51.3 ng/ul salmon testes DNA, 50 uM zinc acetate, 200 nM TF, 25 C, 1 h; high values mean tight binding. The note with it: protein: recombinant; tags: N-terminal polyhistidine and DsRed monomer fusion (pET32a); label: CyDye5-dUTP incorporated in the synthesized complementary strand; 3' TTTTT single-stranded linker to array surface; dsDNA, one strand shown. Put shortly: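 The binding signal for each feature is its fluorescence intensity in arbitrary units. An Axon 4000B scanner was used to read a custom Agilent array that had been made double-stranded with Cy5-dUTP primer extension, blocked with 2% BSA, incubated at 25 °C for 1 h with 200 nM protein in PBS, 2% BSA, salmon testes DNA and 50 µM zinc acetate, and washed. The protein was an N-terminal polyhistidine–DsRed transcription factor fusion from E. coli BL21-CodonPlus, purified on Ni–NTA.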
For “TCTAATTAAGTGTTCATCTTGGCTTCCAAACCACTTCGGGCGGAGTCACCTAGTGCAG”, the binding signal was 17700 fluorescence intensity (a.u.). The figure for “AACTTAATTAGCGGCGAATAGTCGTGACACGTATTTTGTGCGGAGTCACCTAGTGCAG” is 40100 fluorescence intensity (a.u.); for “GACTTTCGAACAAATTAGACTAATTTATATGAAATTTATGCGGAGTCACCTAGTGCAG” it is 17700 fluorescence intensity (a.u.). For “GATAGATAGATATGGACGCTCAGCTGTTCAGTTTGCCTGGCGGAGTCACCTAGTGCAG” the value was 8250 fluorescence intensity (a.u.); for “TAAACTGTAATTATAGTCTTGTAGAACTAGCCAATAGTTACGGAGTCACCTAGTGCAG”, 10800 fluorescence intensity (a.u.); for “CAATCACATTTTATGATTTTATCACAAGATTTTGTAGTAGCGGAGTCACCTAGTGCAG”, 4190 fluorescence intensity (a.u.).

Regarding “TAGAGAATTGATTGGGCTTTTGGTTGACTTCTTTGACACGCGGAGTCACCTAGTGCAG”, the binding signal is 40200 fluorescence intensity (a.u.). In the case of “GAGTAATTTATTAGCACAAACATTAACAGTGTTCATAGCGCGGAGTCACCTAGTGCAG”, the binding signal is 20300 fluorescence intensity (a.u.). For “GAGATTTAATAGAATAAATTGGGCCTAGCCCAATTATTCTCGGAGTCACCTAGTGCAG” the value was 3970 fluorescence intensity (a.u.); for “CAAGTGAAAGTTGATTGACCTAAGATTTCACGAGTTTGACCGGAGTCACCTAGTGCAG”, 22200 fluorescence intensity (a.u.). For “GGTGTGATGGAAAAGTTGAAAGTATTATGTTTTGGAACCTCGGAGTCACCTAGTGCAG”, the binding signal is 6430 fluorescence intensity (a.u.). For “CAGGGCATAATTAATATATACCTACCAAAGCAGTAACTTCCGGAGTCACCTAGTGCAG” the value was 5200 fluorescence intensity (a.u.); for “CATCAATCATTAATGGTTGCGACCAGTTACTCCCTCTGTCCGGAGTCACCTAGTGCAG”, 45500 fluorescence intensity (a.u.); for “TGGTACAGATCTGTTAGTAAATTTACATGCCCTAATATTACGGAGTCACCTAGTGCAG”, 3340 fluorescence intensity (a.u.).

“ATGAAATTTGTTAGTTGATGTGCACGGTATGTATATGATACGGAGTCACCTAGTGCAG”: the binding signal was 7600 fluorescence intensity (a.u.). The figure for “TAAAATAAATTATAGATTTTGCCTGTAAACTGCGAAACGACGGAGTCACCTAGTGCAG” is 9990 fluorescence intensity (a.u.); for “GTAACAATTAAATCTTTATAACAAGATCTCACATGATTATCGGAGTCACCTAGTGCAG” it is 4580 fluorescence intensity (a.u.). For the sequence “GCGTAAACGTGACATAAAATGCACAAATGGGAAGTCTTTGCGGAGTCACCTAGTGCAG”, the binding signal is 3260 fluorescence intensity (a.u.).

For the sequence “GCTAATTATACCACTCGAGCCATTGGTTTCGGCAACAATTCGGAGTCACCTAGTGCAG”, the binding signal was 19700 fluorescence intensity (a.u.). Turning to “TCTCGTTGATTTCTTTTCCCTTTGCCAGCTTTCGCTTTTCCGGAGTCACCTAGTGCAG”, the binding signal is 9170 fluorescence intensity (a.u.). In the case of “TTTTAAAACTGATTTATAATCAAAGGTTCTAATGTTTGACCGGAGTCACCTAGTGCAG”, the binding signal is 24900 fluorescence intensity (a.u.). Regarding “TCGCTCTGATTTGATTTTGGAAATGGTGGTAAAGCTAATGCGGAGTCACCTAGTGCAG”, the binding signal was 32300 fluorescence intensity (a.u.).

Consider “CAGACCAATCAGTGCACGCAGAGCTTCTTCTTCCTTCTTCCGGAGTCACCTAGTGCAG”, for which the binding signal was 6430 fluorescence intensity (a.u.).

In the case of “ACTACAATAGATTAGCTGTAAAATATCAGAGATTAATGCACGGAGTCACCTAGTGCAG”, the binding signal was 8560 fluorescence intensity (a.u.). As to “TTCAATTGATATAGACACAGATCTATGTGATTCACTGACACGGAGTCACCTAGTGCAG”, the binding signal is 21700 fluorescence intensity (a.u.). On to “AATGCAATTTGCAATAATTATATCAGTGCCAAATCCCATGCGGAGTCACCTAGTGCAG”, for which the binding signal was 16200 fluorescence intensity (a.u.). For “AGTTACAGTGTAATTTATGAAACTTACACTGTAACTTTTGCGGAGTCACCTAGTGCAG” the value was 5490 fluorescence intensity (a.u.); for “GTTTTGTGATTGAGGGATGTTATTCGACAAAAGGCAAGAGCGGAGTCACCTAGTGCAG”, 29600 fluorescence intensity (a.u.); for “TCTAAATCATTTTAATCATGGTACAGATCTACTGATAATACGGAGTCACCTAGTGCAG”, 7740 fluorescence intensity (a.u.).

Consider “CTCCCGCTAATTTGCTCATCCGACCAGCCAAACTGTCGCCCGGAGTCACCTAGTGCAG”, for which the binding signal is 23600 fluorescence intensity (a.u.). Consider “ATCTAAATGAAAATCTAGACTATTTGGGACAGCTGGGAGACGGAGTCACCTAGTGCAG”, for which the binding signal was 6090 fluorescence intensity (a.u.). Consider “CGCTCCCAATTGACACCTTGAATTTATTTTGTCAGGATTGCGGAGTCACCTAGTGCAG”, for which the binding signal is 15700 fluorescence intensity (a.u.). Consider “ATCGTTAATAGACACATGAGGGTCCGCATGTTATAGATAGCGGAGTCACCTAGTGCAG”, for which the binding signal was 12100 fluorescence intensity (a.u.). Turning to “TTATTTGATGATGATTTAATATCAGAATTAAGTAGGCCGTCGGAGTCACCTAGTGCAG”, the binding signal is 27700 fluorescence intensity (a.u.). Consider “GAAATTAAACTAATATTTCGGCCCATCAAGGGCTCGCTTGCGGAGTCACCTAGTGCAG”, for which the binding signal was 8580 fluorescence intensity (a.u.). In the case of “GAGCTACTAGATTGGCTATAGATGAACTGGAGCTAGTAGTCGGAGTCACCTAGTGCAG”, the binding signal is 16100 fluorescence intensity (a.u.).

Regarding “GCCTTACTCACGGTGATTAGTTTAACCCCATCCTTTGGTTCGGAGTCACCTAGTGCAG”, the binding signal is 9330 fluorescence intensity (a.u.). Consider “GCTATATTCAAATTAATGAAATTTCATCTAGTATTCTCTACGGAGTCACCTAGTGCAG”, for which the binding signal is 8200 fluorescence intensity (a.u.). For “GGTAATTTCGCAATAACACCCAACCCAGCGATCTCCCCGGCGGAGTCACCTAGTGCAG” the value was 8880 fluorescence intensity (a.u.); for “ATATTACAAGTATATAATTATATGGAAGCAATTTTGTTGACGGAGTCACCTAGTGCAG”, 3460 fluorescence intensity (a.u.); for “GGTGCAGGAGGAGGAGGGGAAAGAGCGGCGGGGAGAAGTTCGGAGTCACCTAGTGCAG”, 4920 fluorescence intensity (a.u.).

On to “TTAAGTTAGAAACTGTAATTAATTTCGTTGCTGCGACGGTCGGAGTCACCTAGTGCAG”, for which the binding signal was 6310 fluorescence intensity (a.u.).
